Results taken from PubChem BioAssay (Tox21).
“And” between values parts separate entries of the source, which are not always exact repeats. Identical values can stand only once. The inconclusive results got no clear call from the source; some entries with a clear call stand among them for comparison. Potencies beside an inconclusive call are fits to weak or partial responses and may not hold up. The source made the active and inactive calls. The call rests on the fitted dose curve; in most records, active means well fitted curve in the direction sought with a large enough effect in the repeat runs; inconclusive means weak or mixed curves; inactive means no such curve, though single readings can be large; an effect the other way counts as inactive or inconclusive.

assay: qHTS RealTime-Glo MT Cell Viability Assay in HepG2 cells - 8 hour (AID 1224873); details: RealTime-Glo luminescence; series mostly up to 76.8 µM; further: nearly all actives have a fitted effect of over 55% in size
How it was run: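 HepG2 cells mixed with RealTime-Glo MT reagents (NanoLuc plus cell-permeant prosubstrate) were seeded at 600 cells/well, incubated 5 h at 37 C/5% CO2, then pinned with compounds in DMSO; nonlytic luminescence tracked viability during 40 h treatment.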
Potency means the concentration at half of the fitted maximal effect; tags describe the fitted curve by direction and shape.

| SMILES | Potency |
| --- | --- |
| CNCCCC12CCC(c3ccccc31)c1ccccc12 | inconclusive: 49 µM [falling, partial curve] |
| COc1cccc2c1C(=O)c1c(O)c3c(c(O)c1C2=O)C[C@@](O)(C(=O)CO)C[C@@H]3O[C@H]1C[C@H](N)[C@H](O[C@@H]2CCCCO2)[C@H](C)O1 | inconclusive: 10.7 µM [falling, partial curve] |
| Nc1cc(S(=O)(=O)O)cc2cc(S(=O)(=O)O)cc(O)c12 | inconclusive: 21.9 µM [falling, partial curve] |

assay: qHTS RealTime-Glo MT Cell Viability Assay in HEK293 cells - 40 hour (AID 1224874); details: RealTime-Glo luminescence; max response: stronger effect = lower value; further: nearly all actives have a fitted effect of over 50% in size
How it was run: (§1)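 Real-time viability in HEK293: signal arises when living cells convert a prosubstrate for NanoLuc in the medium, so luminescence tracks viable cell number. Compound (23 nL, DMSO) added 5 h post-seeding; kinetic reads at 0–40 h, 37 C.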

| SMILES | Potency |
| --- | --- |
| S=c1nc[nH]c2nc[nH]c12 | inconclusive: 23.9 µM [cytotoxic, single point] |
| O=C(O)c1ccc(-n2nc(-c3ccccc3O)nc2-c2ccccc2O)cc1 | inconclusive: 23.9 µM [cytotoxic, single point] |
| CC[C@H]1CN2CCc3cc(OC)c(OC)cc3[C@@H]2C[C@@H]1C[C@H]1NCCc2cc(OC)c(OC)cc21 | active: 13.9 nM and active: 42.5 nM |
| COc1cccc2c1C(=O)c1c(O)c3c(c(O)c1C2=O)C[C@@](O)(C(=O)CO)C[C@@H]3O[C@H]1C[C@H](N)[C@H](O[C@@H]2CCCCO2)[C@H](C)O1 | active: 0.19 µM |
| Nc1cc(S(=O)(=O)O)cc2cc(S(=O)(=O)O)cc(O)c12 | inconclusive: 24.5 µM [cytotoxic, partial curve] |

assay: A CellTox Green Cytotoxicity Assay to monitor cytotoxicity in HEK293 cells - 24 hour (AID 1224875); details: CellTox Green fluorescence; series mostly up to 76.8 µM; further: nearly all actives have a fitted effect of over 45% in size
How it was run: (§2)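 Cells (HEK293, 600/well) and dye reagent are dispensed together. After 5 h at 37 C, 23 nL compound is pinned in. Plates stay at 37 C for 40 h with fluorescence read at 0h, 8h, 16h, 24h, 32h and 40h.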

| SMILES | Potency |
| --- | --- |
| CNCCCC12CCC(c3ccccc31)c1ccccc12 | active: 54.9 µM and inconclusive: 26.8 µM [activator, single point] |
| CC(=O)[C@H]1CC[C@H]2[C@@H]3CCC4=CC(=O)CC[C@]4(C)[C@H]3CC[C@]12C | inconclusive: 61.3 µM [activator, partial curve, poor fit] and inconclusive: 43.6 µM [activator, partial curve] |
| CC[C@H]1CN2CCc3cc(OC)c(OC)cc3[C@@H]2C[C@@H]1C[C@H]1NCCc2cc(OC)c(OC)cc21 | inconclusive: 61.9 µM [activator, single point] |
| CNc1ccc(O)cc1 | inconclusive: 15.5 µM [activator, full curve, poor fit] |
| COc1cc(C=C2CCC/C(=C\c3ccc(O)c(OC)c3)C2=O)ccc1O | inactive |

assay: qHTS RealTime-Glo MT Cell Viability Assay in HepG2 cells - 32 hour (AID 1224877); details: RealTime-Glo luminescence; series mostly up to 76.8 µM; further: nearly all actives have a fitted effect of over 55% in size
How it was run: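 Compound treatment began 5 h after plating HepG2 cells (600/well) with NanoLuc luciferase and prosubstrate. Plates stayed at 37 C for 40 h; luminescence was captured at six time points, 0 h through 40 h.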

| SMILES | Potency |
| --- | --- |
| CC(=O)[C@H]1CC[C@H]2[C@@H]3CCC4=CC(=O)CC[C@]4(C)[C@H]3CC[C@]12C | inconclusive: 24.5 µM [cytotoxic, partial curve] |
| CC[C@H]1CN2CCc3cc(OC)c(OC)cc3[C@@H]2C[C@@H]1C[C@H]1NCCc2cc(OC)c(OC)cc21 | inconclusive: 7.79 µM [cytotoxic, partial curve] and inconclusive: 2.68 µM [cytotoxic, partial curve] |
| CNc1ccc(O)cc1 | inconclusive: 54.8 µM [cytotoxic, single point] |
| Nc1cc(S(=O)(=O)O)cc2cc(S(=O)(=O)O)cc(O)c12 | inconclusive: 49 µM [cytotoxic, partial curve, poor fit] |
| COc1cc(C=C2CCC/C(=C\c3ccc(O)c(OC)c3)C2=O)ccc1O | active: 23.9 µM |

assay: A CellTox Green Cytotoxicity Assay to monitor cytotoxicity in HepG2 cells - 24 hour (AID 1224878); details: CellTox Green fluorescence; series mostly up to 76.8 µM; further: nearly all actives have a fitted effect of over 45% in size
How it was run: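 Cells and non-lytic dye reagent are dispensed together (600 HepG2 cells/well) and incubated 5 h before DMSO compound transfer. Kinetic fluorescence is then recorded in the same wells during 40 h at 37 C.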

| SMILES | Potency |
| --- | --- |
| CNCCCC12CCC(c3ccccc31)c1ccccc12 | active: 43.6 µM and active: 23.9 µM |
| CC(=O)[C@H]1CC[C@H]2[C@@H]3CCC4=CC(=O)CC[C@]4(C)[C@H]3CC[C@]12C | inconclusive: 54.9 µM [activator, partial curve] |
| CC[C@H]1CN2CCc3cc(OC)c(OC)cc3[C@@H]2C[C@@H]1C[C@H]1NCCc2cc(OC)c(OC)cc21 | active: 49.2 µM and active: 26.8 µM |
| CC(=O)C1=C(C)[C@@H]2C[C@@]3(C1)[C@H](C)CC[C@H]3C2(C)C | inconclusive: 61.6 µM [activator, partial curve, poor fit] |

assay: qHTS RealTime-Glo MT Cell Viability Assay in HEK293 cells - 0 hour (AID 1224880); details: RealTime-Glo luminescence; series mostly up to 76.8 µM; further: nearly all actives have a fitted effect of over 45% in size
How it was run: as §1

| SMILES | Potency |
| --- | --- |
| CNCCCC12CCC(c3ccccc31)c1ccccc12 | inconclusive: 21.9 µM [rising, partial curve] and inconclusive: 21.3 µM [rising, partial curve] |
| CC(=O)[C@H]1CC[C@H]2[C@@H]3CCC4=CC(=O)CC[C@]4(C)[C@H]3CC[C@]12C | active: 15.4 µM and active: 19.5 µM |
| Nc1ccc(O)c(N)c1 | inconclusive: 54.6 µM [falling, partial curve] and inconclusive: 49 µM [falling, partial curve] |
| CNc1ccc(O)cc1 | active: 17.3 µM |
| COc1cc(C=C2CCC/C(=C\c3ccc(O)c(OC)c3)C2=O)ccc1O | inconclusive: 13.4 µM [falling, partial curve] |

assay: A CellTox Green Cytotoxicity Assay to monitor cytotoxicity in HEK293 cells - 32 hour (AID 1224881); details: CellTox Green fluorescence; series mostly up to 76.8 µM; further: nearly all actives have a fitted effect of over 40% in size
How it was run: as §2

| SMILES | Potency |
| --- | --- |
| CNCCCC12CCC(c3ccccc31)c1ccccc12 | inconclusive: 26.8 µM [activator, single point] |
| CC(=O)[C@H]1CC[C@H]2[C@@H]3CCC4=CC(=O)CC[C@]4(C)[C@H]3CC[C@]12C | active: 24.4 µM and active: 34.7 µM |
| CC[C@H]1CN2CCc3cc(OC)c(OC)cc3[C@@H]2C[C@@H]1C[C@H]1NCCc2cc(OC)c(OC)cc21 | inconclusive: 55.1 µM [activator, single point] and inconclusive: 10.7 µM [activator, single point] |
